This is one part of the list. The full chains were built here from the parent and the listed change. Values near 0.05 are background.
B1: TEV protease; numbered along this chain (parent)
chain: MGESLFKGPRDYNPISSSICHLTNESDGHTTSLYGIGFGPFIITNKHLFRRNNGTLVVQSLHGVFKVKDTTTLQQHLVDGRDMIIIRMPKDFPPFPQKLKFREPQREERICLVTTNFQTKSMSSMVSDTSCTFPSGDGIFWKHWIQTKDGQCGSPLVSTRDGFIVGIHSASNFTNTNNYFTSVPKNFMELLTNQEAQQWVSGWRLNADSVLWGGHKVFMVKPEEPFQPVKEATQL

Variants of: B1
Assay: raw area under fraction-flipped curve 0-4 h after induction (AUC4h, not background-subtracted), DNA-recorder readout of cleavage of the substrate (dimensionless); higher = more cleavage of the substrate by the protease variant
Settings: temperature: 34 °C; time window: 0-4 h after rhamnose induction
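Note: Bxb1 expression induced with 0.2% (w/v) L-rhamnose at OD600 near 0.5, cultures sampled hourly, flipped fraction per protease–substrate barcode pair counted by paired-end Illumina sequencing.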

Variant	area with substrate ANLYFQS	area with substrate CNLYFQS	area with substrate DNLYFQS	area with substrate FNLYFQS	area with substrate HNLYFQS	area with substrate KNLYFQS	area with substrate LNLYFQS	area with substrate MNLYFQS	area with substrate RNLYFQS	area with substrate TNLYFQS	area with substrate VNLYFQS	area with substrate WNLYFQS	area with substrate YNLYFQS	area with substrate GNLYFQS	area with substrate NNLYFQS	area with substrate QNLYFQS	area with substrate SNLYFQS	area with substrate INLYFQS	area with substrate PNLYFQS
T233K	0.058	0.0628	0.0814	0.0616	0.0695	0.0631	0.062	0.0889	0.079	0.0649	0.0253	0.0488	0.0647						
R204T	0.0649	0.121	0.0837	0.0673	0.0697	0.0688	0.0752	0.0627		0.064	0.0665	0.0661	0.0715	0.0624	0.0734	0.0571	0.0685		
S17Q	0.0647	0.0715	0.0757		0.0657	0.0706	0.0617	0.0751		0.0673	0.0702	0.0556	0.0633	0.0038	0.0658		0.0704	0.0757	0.0746
Q146R	0.0659	0.0851	0.0639	0.0616	0.0571	0.0734	0.0653			0.0599	0.0743	0.0525	0.0683		0.0741	0.0642	0.0718	0.072	0.0746
H29A	0.0623	0.0726	0.0943		0.0584		0.0609	0.0494		0.0636		0.0625	0.0665	0.0816	0.0514		0.0635	0.0632	0.0854
S171E	0.0563	0.0769	0.0591				0.0624	0.0601	0.0477		0.0541	0.0565				0.125	0.0776		
K98I	0.0618	0.0534	0.0816		0.0644		0.0703	0.0644		0.0566		0.0774		0.0662	0.0717		0.0659	0.0664	0.0571
K66P	0.0619	0.0579	0.0746	0.0672	0.0647			0.0604		0.0607		0.0599	0.0618	0.055	0.0585			0.0341	
S18K	0.0655	0.0553	0.0745	0.0528	0.0555	0.0597	0.0718		0.0694	0.0749	0.0609	0.0564	0.0563	0.0731	0.0598	0.115			0.0681
Q118T	0.0758	0.0728	0.0923	0.0735	0.0989	0.0616		0.0491		0.0607		0.051		0.074				0.082	
D11Q	0.0573	0.0693	0.0777	0.0368	0.0582	0.0711	0.0698	0.0573	0.0324	0.0703		0.0585	0.0579	0.0688	0.0704				0.0629
V126M	0.0498	0.0563	0.0767	0.0608	0.0548	0.0638		0.0727	0.0505	0.0712		0.0557	0.072	0.0648	0.0642		0.0679	0.0707	0.0417
H21G	0.0867	0.0594	0.0818	0.0515	0.0614	0.0664	0.0557	0.075	0.0624	0.0613		0.0581	0.0608		0.0735	0.073	0.0608	0.0634	0.0677
Q194R	0.0756	0.0563	0.0914		0.0504	0.0692	0.0677	0.0725		0.0981	0.0585	0.0631	0.0621	0.0545			0.0524	0.0552	0.0651
L156W	0.0897	0.0533	0.0707	0.0518	0.0567	0.0611	0.0604	0.0581	0.0634	0.0554	0.0504	0.0619	0.0581	0.0586	0.062	0.0431	0.0543	0.0576	0.0483
I139S	0.0966	0.0692	0.108	0.075	0.0657	0.0748	0.0546			0.0733		0.0585	0.0659		0.0607	0.064	0.0648		0.0845
I42Y	0.05	0.0482	0.0553	0.0384	0.0406	0.0524	0.0425	0.0453	0.0376	0.0441		0.0375	0.0373	0.0414	0.0391	0.0675	0.038	0.0482	0.0352
A196L	0.109	0.069	0.0761	0.0493	0.0745	0.076	0.0722	0.0769		0.0661		0.058	0.0682	0.04	0.0604			0.0442	0.0753
M83W	0.0505	0.0603	0.0632	0.0819	0.0635		0.0637		0.0551	0.0579	0.0698	0.0598					0.0542	0.0519	0.071
G166R	0.0623	0.048	0.0543	0.0487	0.0503		0.0555	0.065		0.051		0.0546	0.0475	0.0438	0.0417		0.0583	0.0525	0.0503
D82Y	0.0548	0.0613	0.0506	0.072				0.061		0.0426		0.0521	0.048				0.0511	0.0622	0.0468
T181L	0.056	0.0518	0.0645		0.0583						0.0569	0.0767	0.0538	0.0539		0.0812			0.0674
F65W	0.0805	0.0723	0.104		0.0703	0.0572	0.0666		0.0536		0.0729		0.0511	0.076	0.0812		0.0599		0.0762
V67T	0.0523	0.0667	0.0683		0.0564	0.0702				0.0599		0.0579	0.0568	0.0536				0.0567	0.0641
D69W	0.0332	0.0546	0.0685	0.0552	0.043		0.0652				0.0543	0.0483					0.0173		0.0565
